Results from PubChem BioAssay AID686978 (National Center for Advancing Translational Sciences (NCATS), 2013).
About 64,000 (15%) of roughly 420,000 compounds were called active. The inconclusive results got no clear call from the source; some entries with a clear call stand among them for comparison. Calls come from the whole dose curve; as a rule, active = well fitted inhibition curve with a large enough effect; inconclusive = small, poorly fitted or top-dose-only effect; inactive = flat fitted curve, though single readings scatter. No potency is given beside an inconclusive call; the fits are too rough.

Assay: qHTS for Inhibitors of human tyrosyl-DNA phosphodiesterase 1 (TDP1): qHTS in cells in absence of CPT; note: nearly all actives have a fitted effect of over 55% in size
Settings: DT40 Tdp1-/- hTDP1 cells, no CPT, ATP luminescence, 48 h; activity change, negative = growth inhibition: at 46.2 µM (top of the series) unless noted
Method in brief: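 Cells were dispensed at 400 per well, compounds added by pin tool, plates incubated ≥48 hr at 37 °C, then CellTiter-Glo added for 30 min at room temperature before luminescence reading. Line: DT40 Tdp1-/- complemented with hTDP1; camptothecin omitted.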
% is set by controls: 0 for no effect and ±100 for the full control effect; potency is the fitted concentration of half-maximal effect; tags give direction and shape of the fitted curve.

Compound	activity change, negative = growth inhibition	Potency
NS(=O)(=O)c1ccc(CCNC(=O)C2CCCN2C(=O)OCc2ccccc2)cc1 (configuration not stated)	inactive: -16.9%	–
C(=N\n1cnnc1)/c1ccc(OCc2ccccc2)cc1	inactive: -3.53%	–
Cc1ccc(-c2nonc2NC(=O)c2ccc(F)cc2)cc1C	inactive: -73.7%	–
CC(C)Cc1cc(C(=O)Nc2c(F)cc(F)cc2Br)no1	–	inconclusive [inhibitor, single point]
COc1cc(CNCc2cccc3ccccc23)cc(OC)c1	–	inconclusive [inhibitor, single point]
Cc1ccc(NC(=O)N2CCC(c3ccccc3)C2)cc1C (configuration not stated)	inconclusive: -30.8% [inhibitor]	inconclusive [inhibitor, single point]
CCOCCSc1nc2c(c(=O)[nH]c(=O)n2C)n1CCCc1ccccc1	–	inconclusive [inhibitor, partial curve]
CC1(C)CC(=O)C(=Cc2cn(-c3ccccc3)nc2-c2ccccc2)C(=O)C1	–	active: 23.1 µM
C=CCNC(=S)NNC(=O)C(CCCC)CC(C)O (configuration not stated)	–	inconclusive [inhibitor, single point]
O=C(CCc1ccccc1)N(Cc1cccnc1)c1nc2c(F)cccc2s1	–	inconclusive [inhibitor, single point]
CCOC(=O)[C@]12CCCC=C1N(Cc1ccc(Cl)cc1Cl)C(=O)[C@H](CC(=O)NCCCN1CCCC1=O)C2	–	inconclusive [inhibitor, single point]
COc1cccc(OCC(O)CN2CCC(CN3C(=O)c4cccc5cccc(c45)C3=O)CC2)c1 (configuration not stated)	–	active: 7.31 µM
COc1cc(C(=O)NCC(c2ccco2)S(=O)(=O)c2ccccc2)cc(OC)c1OC (configuration not stated)	–	inconclusive [inhibitor, partial curve]
Cc1ccc(NC(=O)C(NC2CCCC2)c2ccccc2)cc1Cl (configuration not stated)	–	active: 16.4 µM
Cc1ccc(-c2nnn(CC(=O)Nc3ccccc3N3CCOCC3)n2)cc1	–	inconclusive [inhibitor, single point]
CC(C)COC(=O)N1CCCCC1c1cc(C(=O)NCc2ccc(F)cc2)no1 (configuration not stated)	–	active: 20.6 µM
CC(C)C[C@H]1CNC(=S)N1C[C@H]1CCCN1C[C@H](Cc1ccc(O)cc1)N1C[C@H](Cc2ccc(O)cc2)N(CC2CCCCC2)C1=S	–	active: 25.9 µM
CCc1nn(C(CC)C(=O)NCc2ccc(F)cc2)c(=O)c2cc3occc3n12 (configuration not stated)	inactive: -19.7%	–
Cc1ccccc1OCC(=O)OCC(=O)c1cc(C)n(C2CC2)c1C	inactive: 4.96%	–
CN(Cc1cn(C)nc1-c1cccc(Cl)c1)Cc1nccn1C	–	inconclusive [inhibitor, single point]
S=C(Nc1ccc(Cl)cc1)N1CCCCC1	inactive: 0.168%	–
O=C(COC(=O)C1CC2C=CC1C2)Nc1ccc2c(c1)OC(F)(F)O2 (configuration not stated)	–	inconclusive [inhibitor, single point]
CN(CCOC(=O)/C=C/c1ccccc1)C(C)(C)C	inactive: 1.81%	–

Compound	activity change, negative = growth inhibition	Potency
O=C(c1cc2c(s1)-c1ccccc1OC2)N1CCN(c2ccccc2)CC1	–	inconclusive [inhibitor, single point]
CC1=C(C(=O)Nc2ccccc2)C(CC(C)C)n2nc(SCc3ccccc3C)nc2N1 (configuration not stated)	–	inconclusive [inhibitor, single point]
CC(C)c1cccc(C(C)C)c1NC(=O)CCl	–	active: 16.4 µM
CCc1ccc(CN(C)C(=O)CCc2nnc(COc3ccccc3)o2)cc1	–	inconclusive [inhibitor, single point]
CC(C)(C)NC(=O)NC(=O)CN1CCC(Cc2ccccc2)CC1	–	inconclusive [inhibitor, single point]
Cc1ccn2c(-c3n[nH]c(=S)n3C)c(C)nc2c1	inactive: 4.11%	–
Cc1ccc(NC(=O)Nc2ccc3c(c2)OCO3)cc1F	inactive: 23.9%	–
O=C1CSC(c2cn(-c3ccccc3)nc2-c2cccs2)N1CC1CCCO1 (configuration not stated)	–	inconclusive [inhibitor, single point]
O=C(c1ccc(Cl)c(S(=O)(=O)N2CCOCC2)c1)N(Cc1nnc(-c2ccccc2Cl)o1)C1CC1	–	active: 14.6 µM
O=C(NCc1ccccc1)c1onc(CSc2ccc(F)cc2)c1C(=O)NCc1ccccc1	–	inconclusive [inhibitor, single point]
CCCc1cc(=O)oc2cc(OCc3ccc(C(=O)O)cc3)ccc12	inactive: -4.77%	–
COc1ccc(S(=O)(=O)N2CCN(Cc3cc(OC)c(OC)c(OC)c3)CC2)cc1	–	inconclusive [inhibitor, single point]
Cn1ccnc1/C(=N\NC(=O)c1ccccc1)c1cccc([N+](=O)[O-])c1	–	inconclusive [inhibitor, single point]
COc1cc(C(CCN2CCCCC2)c2c(OC)cc(OC)c3c(-c4ccccc4)cc(=O)oc23)cc(OC)c1OC (configuration not stated)	–	inconclusive [inhibitor, single point]
CCCOc1ccc(C(=O)N(Cc2ccc(N(C)C)cc2)CC2CCCO2)cc1 (configuration not stated)	–	inconclusive [inhibitor, single point]
CCCCc1nc(NCc2ccccc2)c(C#N)c2c1CCCC2	inactive: -19.1%	–
CC1CCN(C(=O)COC(=O)Cn2cnc3c2c(=O)n(C)c(=O)n3C)CC1	–	inconclusive [inhibitor, single point]
Cc1ccc(NC(=O)Cc2csc(C)n2)c(C)c1	inactive: -10.7%	–
Cc1ccc(C)[n+](CC(=O)c2ccc(-c3ccccc3)cc2)c1	–	active: 1.84 µM
COc1ccc(CNC(=O)c2cc(SC)ccc2Cl)cc1OC	inconclusive: -33.6% [inhibitor]	–
Cn1c(=O)c2nc(NCc3ccccc3)sc2n(C)c1=O	–	inconclusive [inhibitor, single point]
Cc1cccc(-c2oc3ccc(-c4ccc5c(c4)OCO5)cc3c2C(=O)OCc2ccc(O)cc2)c1	–	inconclusive [inhibitor, single point]
CCCN(CCC)CCCNC(=O)Cn1ncc2c3ccccc3n(Cc3ccccc3)c2c1=O	–	inconclusive [inhibitor, single point]
